Laboratory results as given in publication PMC4336329 (PLoS ONE, 2015).
The campaign covered roughly 310,000 compounds. About 14,000 (4.5%) showed an effect of 50% or more. The effect is printed as a negative number. Some of the results follow.

target: human ether-à-go-go-related gene (hERG) potassium channel (human, UniProt Q12809); assay: primary screen, population patch clamp on CHO cells stably expressing hERG
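Also: peak tail current of the secondary pulse compared with the same well before compound.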

Chain of human ether-à-go-go-related gene (hERG) potassium channel (Q12809 whole entry, looked up): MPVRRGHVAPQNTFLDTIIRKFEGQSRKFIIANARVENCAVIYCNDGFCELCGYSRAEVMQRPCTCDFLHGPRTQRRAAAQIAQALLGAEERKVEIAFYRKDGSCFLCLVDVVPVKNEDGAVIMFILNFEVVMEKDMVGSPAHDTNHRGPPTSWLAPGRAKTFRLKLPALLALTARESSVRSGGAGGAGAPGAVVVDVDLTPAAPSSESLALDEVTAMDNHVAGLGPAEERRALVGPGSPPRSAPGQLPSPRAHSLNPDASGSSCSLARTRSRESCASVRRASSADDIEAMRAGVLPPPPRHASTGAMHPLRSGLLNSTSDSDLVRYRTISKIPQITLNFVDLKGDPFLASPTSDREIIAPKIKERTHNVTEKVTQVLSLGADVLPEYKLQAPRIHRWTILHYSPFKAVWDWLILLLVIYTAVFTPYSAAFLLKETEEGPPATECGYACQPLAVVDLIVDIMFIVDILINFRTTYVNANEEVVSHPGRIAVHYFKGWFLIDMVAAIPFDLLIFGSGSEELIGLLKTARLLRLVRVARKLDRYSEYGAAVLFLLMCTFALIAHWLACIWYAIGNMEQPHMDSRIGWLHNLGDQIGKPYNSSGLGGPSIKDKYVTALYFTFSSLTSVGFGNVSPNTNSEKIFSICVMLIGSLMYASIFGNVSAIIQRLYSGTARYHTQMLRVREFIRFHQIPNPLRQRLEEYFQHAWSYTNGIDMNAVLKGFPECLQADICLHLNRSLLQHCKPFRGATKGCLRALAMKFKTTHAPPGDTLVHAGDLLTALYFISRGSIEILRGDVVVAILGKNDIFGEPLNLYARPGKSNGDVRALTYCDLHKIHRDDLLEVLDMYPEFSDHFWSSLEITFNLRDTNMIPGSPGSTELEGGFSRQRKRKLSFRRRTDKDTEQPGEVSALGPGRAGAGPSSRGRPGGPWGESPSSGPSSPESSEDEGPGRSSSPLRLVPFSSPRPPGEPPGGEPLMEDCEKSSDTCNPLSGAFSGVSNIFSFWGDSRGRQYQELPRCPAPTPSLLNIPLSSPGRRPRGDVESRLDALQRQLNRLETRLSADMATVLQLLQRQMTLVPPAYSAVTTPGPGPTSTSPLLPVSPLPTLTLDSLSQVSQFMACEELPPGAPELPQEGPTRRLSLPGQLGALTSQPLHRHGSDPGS

| SMILES | hERG current change (%, negative = inhibition) at 10uM |
| --- | --- |
| CCOc1ccccc1N1CCN(Cc2ccc(OC)c(OC)c2)CC1 | -69.2% |
| CC(=O)c1ccc(-n2c(SCC(=O)c3c[nH]c4ccccc34)nc3ccccc3c2=O)cc1 | 13.3% |
| O=C(Nc1ccc2c(c1)OCO2)c1cnn2c(C(F)(F)F)cc(-c3ccco3)nc12 | 2.24% |
| CCc1cc2c(=O)n(Cc3ccco3)c(SCC(=O)N(C)C3CCS(=O)(=O)C3)nc2s1 (stereo not shown) | -79.1% |
| CC1CN(c2ccc(NC(=O)c3ccco3)cc2C(=O)O)CC(C)O1 (stereo not shown) | 1.69% |
| COc1cccc(-n2c(Cc3cc(=O)[nH]c(=O)[nH]3)nnc2SCC(=O)Nc2ccccc2)c1 | 4.39% |
| COC(=O)c1c(C)[nH]c(C(=O)C(C)Sc2nnc(-c3cc(OC)c(OC)c(OC)c3)o2)c1C (stereo not shown) | -9.78% |
| C=CCC1(CN2CCCC2=O)C(=O)NC(=O)NC1=O | 12% |
| CCN(CC)C(=O)C(C)N(C#N)c1nc(NC(C)C)nc(NC(C)C)n1 (stereo not shown) | -17.7% |
| Cc1ccc(NS(=O)(=O)c2cc(C(=O)O)ccc2Cl)cc1 | 7.67% |
| CCOC(=O)c1c(NC(=O)CCl)sc(C(=O)N(CC)CC)c1C | -4.98% |
| Cc1ccc(SC(=O)COc2ccc(C)c(C)c2)cc1 | 10.4% |
| COc1cc(/C=N/NC(=O)Cn2cnc3c2c(=O)n(C)c(=O)n3C)cc(OC)c1OC | 11.1% |
| COCCNC(=O)CN1C(=O)/C(=C/c2ccccc2)Oc2ccc(C(C)(C)C)cc21 | 11.8% |
| O=S(=O)(c1ccccc1)N1CCCc2ccccc21 | 2.96% |
| CC(=O)c1cccc(NC(=O)N2CCCC2C(=O)NCc2ccccc2)c1 (stereo not shown) | 15% |
| CSc1cccc(NC(=O)N2CCc3ccc(NC(=O)c4ccccn4)cc3C2)c1 | -25.2% |
| COc1cc2c(cc1NC(=O)COCC(=O)O)oc1ccccc12 | -4.88% |
| O=C(CN1CCN(S(=O)(=O)N2CCOCC2)CC1)Nc1ccc(Cl)c(Cl)c1 | -49.3% |
| CCCCn1nnc(NC(=S)NC(=O)c2ccc(-c3cccc(Cl)c3Cl)o2)n1 | 9.41% |
| CCn1c(SCC(=O)Nc2nc(C)cs2)nnc1C(NC(=O)c1ccccc1Cl)C(C)C (stereo not shown) | -3.6% |
| Cc1ccc(CNC(=O)CN(C)S(=O)(=O)c2cnc[nH]2)cc1 | 3.35% |
| Cc1nc(SCC(=O)c2ccc(F)c(F)c2)[nH]c(=O)c1Oc1ccc(Cl)cc1 | -1.12% |
| Cc1ccc(NC(=O)CSc2nnnn2-c2cccnc2)c(C)c1 | 11.3% |
| COc1ccc(CNc2nc3nc(C)c(Cl)c(C)n3n2)cc1OC | -7.54% |
| O=c1c(-c2ccc([N+](=O)[O-])cc2)coc2c(O)c(O)ccc12 | 25.8% |
| OC1CSc2nc3ccccc3n2C1 (stereo not shown) | 37% |
| O=C(NCc1ccncc1)c1cncc(Br)c1 | 10.1% |

| SMILES | hERG current change (%, negative = inhibition) at 10uM |
| --- | --- |
| COc1ccc(NC(=O)C(C)N2C(=O)c3ccccc3S2(=O)=O)c(OC)c1 (stereo not shown) | -9.44% |
| COc1ccc(S(=O)(=O)N2CCC(C(=O)NCc3ccncc3)CC2)cc1Cl | 5.93% |
| Cl.Clc1ccc(OCCCN2CCc3ccccc3C2)c(Br)c1 | -34.8% |
| CCOCCCn1c(=NC(=O)c2cccs2)c(C#N)cc2c(=O)n3cccc(C)c3nc21 | -74.1% |
| CCOC(=O)N1CCC(NS(=O)(=O)c2cc3c(cc2C)NC(=O)CO3)CC1 | -7.84% |
| COc1ccc(CNC(=O)C2CCN(S(=O)(=O)N3CCCC3)CC2)cc1 | 11.4% |
| COc1ccc(OC)c(NC(=O)CC2(CC(=O)O)CCCC2)c1 | 1.81% |
| CCS(=O)(=O)N1Cc2ccccc2CC1C(=O)Nc1cc(S(C)(=O)=O)ccc1Cl (stereo not shown) | 6.67% |
| O=C(NCc1cccnc1)/C(=C\c1ccc(-c2cccc(Cl)c2)o1)S(=O)(=O)c1ccccc1 | -23% |
| CC1(C)CNC(=O)C=C(c2ccccc2)C1 | 9.32% |
| COc1cc2ccccc2nn1 | 13.1% |
| O=C(NCCN1CCN(C(=O)c2ccc(Br)cc2)CC1)c1ccc(Br)cc1 | -71.3% |
| Cc1csc(=O)n1CCC(=O)OCC(=O)Nc1ccc(S(N)(=O)=O)cc1 | -0.642% |
| CC(=O)N1c2ccc(C)cc2C(c2ccccc2)CC1C (stereo not shown) | -20.3% |
| Cc1ccccc1CSc1nnc(CCCCCNC(=O)OC(C)(C)C)o1 | -8.59% |
| O=C(CN1C(=O)c2ccccc2C1=O)NCC(=O)OCC(=O)c1ccc(Br)cc1 | -1.61% |
| CCOC(=O)c1ccc2nc(C(F)(F)F)[nH]c(=O)c2c1 | 7.7% |
| O=C(O)c1cccc(Nc2ccncc2[N+](=O)[O-])c1 | 15.1% |
| O=C(COC(=O)C(O)C(O)C(=O)OCC(=O)c1ccc(C(F)(F)F)cc1)c1ccc(C(F)(F)F)cc1 (stereo not shown) | 15.6% |
| O=C(COC(=O)CCC(=O)c1cccs1)NC1CC1 | 25.4% |
| Cc1nnc(NC(=O)CSc2nnc(NC(=O)C(C)(C)C)s2)s1 | 36.6% |
| CC1=NN(c2ccccc2)C(=O)/C1=C\c1ccc(Oc2ccc([N+](=O)[O-])cc2[N+](=O)[O-])cc1 | 12.7% |
| CC(=O)N(NC(=O)c1ccc(C)cc1)C1CC(=O)N(c2ccccc2Cl)C1=O (stereo not shown) | -10.3% |
| Cc1ccc(-c2cc(C(=O)NCc3ccccn3)c3ccccc3n2)cc1C | -11% |
| O=C(Nc1ccccc1C(=O)O)c1ccc(Br)o1 | 18.2% |
| Cc1cc(=O)n(-c2ccc3ccccc3n2)[nH]1 | 5.66% |
| Cc1ccc(S(=O)(=O)CCC(=O)Nc2ccc(S(=O)(=O)N(C)C)cc2)cc1 | 7.9% |
